Some of the results follow. These are noisy estimates, calculated here from bound and input reads.
The sequences below were run against T1, Pho4 (S. cerevisiae) (UniProt P07270) (assay: relative binding free energy (BET-seq); higher = weaker binding). Conditions: reference: library average.
T1 sequence: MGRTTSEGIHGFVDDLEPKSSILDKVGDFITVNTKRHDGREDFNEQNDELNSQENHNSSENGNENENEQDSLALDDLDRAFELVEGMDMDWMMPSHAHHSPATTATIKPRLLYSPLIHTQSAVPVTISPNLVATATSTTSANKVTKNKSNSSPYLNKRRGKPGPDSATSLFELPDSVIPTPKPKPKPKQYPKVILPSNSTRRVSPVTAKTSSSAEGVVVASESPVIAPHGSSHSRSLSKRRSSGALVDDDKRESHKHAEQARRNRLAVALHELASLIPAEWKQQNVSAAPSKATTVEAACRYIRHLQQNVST

Sequence | relative binding free energy
TTGATCACGTGATTAA | 0.29 kcal/mol
AGCGCCACGTGGGTTG | -0.22 kcal/mol
TCTAGCACGTGTGAGG | -0.05 kcal/mol
GGCGGCACGTGATGGA | 0.15 kcal/mol
TCGTGCACGTGGGGAC | -0.05 kcal/mol
TGTCGCACGTGTGTAA | -0.21 kcal/mol
GGGTTCACGTGAAGGG | 0.57 kcal/mol
TTTGTCACGTGCGATG | 0.13 kcal/mol
AGGGGCACGTGTGCCT | -0.21 kcal/mol
CGGTTCACGTGTACGG | 0.39 kcal/mol
TGGGGCACGTGACGAG | 0.08 kcal/mol
AGTGTCACGTGGCGGA | 0.08 kcal/mol
TTAACCACGTGGTGTG | -0.1 kcal/mol
GATTGCACGTGTTAGG | 0.1 kcal/mol
TGGTACACGTGGACAG | 0.03 kcal/mol
TGAATCACGTGTGTCT | 0.19 kcal/mol
GGCACCACGTGGGGGG | -0.26 kcal/mol
CAGGCCACGTGAGGGG | 0.12 kcal/mol
GATGGCACGTGGGGAT | -0.03 kcal/mol
CATGTCACGTGTGTTG | 0.08 kcal/mol
AATTGCACGTGATTAT | 0.21 kcal/mol
TTCGGCACGTGAGATT | 0.27 kcal/mol
AGGTGCACGTGGAATA | 0.02 kcal/mol

Sequence | relative binding free energy
ATTATCACGTGTATTG | 0.06 kcal/mol
TAGTACACGTGTATAT | 0.06 kcal/mol
TAAAGCACGTGGGGTT | -0.16 kcal/mol
TGGGCCACGTGGTTGA | -0.2 kcal/mol
GCTTGCACGTGTGTAT | 0.09 kcal/mol
ATCGTCACGTGGGTTG | 0 kcal/mol
GTGTACACGTGTAGGC | 0.18 kcal/mol
AGGTGCACGTGGGCCT | -0.2 kcal/mol
AGGATCACGTGTACGT | 0.28 kcal/mol
AGTAGCACGTGACGAG | 0.27 kcal/mol
TCAGGCACGTGATGGA | 0 kcal/mol
GTAATCACGTGGGGAG | 0.11 kcal/mol
TATTTCACGTGTTTAA | 0.16 kcal/mol
GCGCGCACGTGTTAGG | -0.06 kcal/mol
TGTTACACGTGTGGTC | 0.23 kcal/mol
TTTTGCACGTGGGTCT | -0.09 kcal/mol
TTGGGCACGTGGGCAC | -0.22 kcal/mol
TGGGTCACGTGGTTCG | 0.09 kcal/mol
ATGCACACGTGTGAGG | 0.06 kcal/mol
TAATGCACGTGTGAGA | 0.07 kcal/mol
TATGTCACGTGATCTA | 0.31 kcal/mol
TTCGTCACGTGGTGAG | 0.09 kcal/mol
AGTGGCACGTGGTCGC | -0.25 kcal/mol

Sequence | relative binding free energy
GTTATCACGTGCGGCG | 0.15 kcal/mol
CTAGCCACGTGGTGTG | -0.21 kcal/mol
TGTAGCACGTGGTTGA | -0.05 kcal/mol
AGTGGCACGTGGTCGA | -0.24 kcal/mol
TTAGGCACGTGGGCTC | -0.21 kcal/mol
TCTATCACGTGTGGGG | 0.2 kcal/mol
TCTTTCACGTGTAAGT | 0.2 kcal/mol
GGGCTCACGTGATGGC | 0.55 kcal/mol
TGCGCCACGTGTGGGA | -0.18 kcal/mol
CGTGTCACGTGGCTAG | -0.01 kcal/mol
TCTGGCACGTGTGTTA | -0.03 kcal/mol
TATTTCACGTGGCTGT | 0.22 kcal/mol
TGCGGCACGTGGGGGC | -0.2 kcal/mol
GTGAGCACGTGTTTCG | -0.15 kcal/mol
TGGTGCACGTGGTGGC | -0.11 kcal/mol
TTATTCACGTGTATGA | 0.23 kcal/mol
TATAACACGTGCGTTT | -0.01 kcal/mol
CGGAGCACGTGAGGGG | 0.08 kcal/mol
GCTGTCACGTGGTTAT | 0.09 kcal/mol
GTTTTCACGTGCGGTC | 0.41 kcal/mol
AGTGTCACGTGGGCGC | -0.31 kcal/mol
GTTAACACGTGAAAGG | 0.36 kcal/mol
CGGCTCACGTGATTGG | 0.34 kcal/mol

Sequence | relative binding free energy
TTCTGCACGTGGCGTT | -0.09 kcal/mol
CGGCTCACGTGGGAAT | 0.31 kcal/mol
AAGTTCACGTGATCTT | 0.32 kcal/mol
CGTTTCACGTGGTTAC | 0.23 kcal/mol
GAATGCACGTGGGGGT | -0.14 kcal/mol
GAGGACACGTGAAAGT | 0.56 kcal/mol
AATGTCACGTGTGGAA | 0.18 kcal/mol
GGTAGCACGTGCAAGG | 0.08 kcal/mol
TTGTGCACGTGGACGC | -0.12 kcal/mol
CAGTTCACGTGTTTTA | 0.17 kcal/mol
TGGAGCACGTGTATGG | -0.04 kcal/mol
AGTGGCACGTGATCGG | -0.03 kcal/mol
TTGGTCACGTGTAAAA | 0.23 kcal/mol
GGGTTCACGTGGGTAA | 0.23 kcal/mol
CTTTGCACGTGATTGT | 0.09 kcal/mol
ATTATCACGTGCGGGG | 0.22 kcal/mol
CTAGGCACGTGAGTAG | 0.01 kcal/mol
TTATTCACGTGATCAT | 0.28 kcal/mol
GGTAACACGTGTCGGG | 0.11 kcal/mol
AATTACACGTGGGATG | 0.02 kcal/mol
GATGGCACGTGAGCGT | 0.06 kcal/mol
TTTTACACGTGAATGG | 0.45 kcal/mol
AAGGACACGTGTGCGG | -0.04 kcal/mol

Sequence | relative binding free energy
TAGTTCACGTGAATGA | 0.42 kcal/mol
AAGGCCACGTGGGAAT | 0.01 kcal/mol
TCTTGCACGTGAAAGT | 0.23 kcal/mol
GGCTTCACGTGGTCGG | 0.3 kcal/mol
TCGTGCACGTGAAAGT | 0.2 kcal/mol
CTGATCACGTGGTAGT | 0.06 kcal/mol
TCGGTCACGTGATTTA | 0.23 kcal/mol
TTCATCACGTGCGGGT | 0.19 kcal/mol
CGTGACACGTGGGTAA | -0.08 kcal/mol
CGTATCACGTGTGGGA | 0.26 kcal/mol
GGAAGCACGTGGCAGG | -0.2 kcal/mol
GGGATCACGTGGTTGA | 0.11 kcal/mol
TAAGACACGTGGGTGT | -0.2 kcal/mol
CAGTGCACGTGGTTTT | -0.05 kcal/mol
TCGTGCACGTGCATGT | -0.03 kcal/mol
AGCTTCACGTGTTAGT | 0.14 kcal/mol
GTTTCCACGTGGTAGT | -0.04 kcal/mol
TGGATCACGTGAAAGT | 0.31 kcal/mol
GGTATCACGTGTGGTA | 0.3 kcal/mol
GGTTACACGTGGGCTG | -0.12 kcal/mol
TGGTTCACGTGATTGC | 0.36 kcal/mol
TTGTGCACGTGACTGC | 0.16 kcal/mol
ACTTGCACGTGAGTAT | 0.28 kcal/mol

Reference: the BET-seq Pho4 binding data (Le et al. 2018)
